Laboratory results from publication PMC4336329 (PLoS ONE, 2015).
Screen size: about 310,000 compounds; about 14,000 (4.5%) showed an effect of 50% or more. The effect is printed as a negative number. Some of the results follow.

target: human ether-à-go-go-related gene (hERG) potassium channel (human, UniProt Q12809); experiment: primary screen, population patch clamp on CHO cells stably expressing hERG
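Note: peak tail current of the secondary pulse compared with the same well before compound.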

human ether-à-go-go-related gene (hERG) potassium channel, sequence (Q12809 whole entry, looked up): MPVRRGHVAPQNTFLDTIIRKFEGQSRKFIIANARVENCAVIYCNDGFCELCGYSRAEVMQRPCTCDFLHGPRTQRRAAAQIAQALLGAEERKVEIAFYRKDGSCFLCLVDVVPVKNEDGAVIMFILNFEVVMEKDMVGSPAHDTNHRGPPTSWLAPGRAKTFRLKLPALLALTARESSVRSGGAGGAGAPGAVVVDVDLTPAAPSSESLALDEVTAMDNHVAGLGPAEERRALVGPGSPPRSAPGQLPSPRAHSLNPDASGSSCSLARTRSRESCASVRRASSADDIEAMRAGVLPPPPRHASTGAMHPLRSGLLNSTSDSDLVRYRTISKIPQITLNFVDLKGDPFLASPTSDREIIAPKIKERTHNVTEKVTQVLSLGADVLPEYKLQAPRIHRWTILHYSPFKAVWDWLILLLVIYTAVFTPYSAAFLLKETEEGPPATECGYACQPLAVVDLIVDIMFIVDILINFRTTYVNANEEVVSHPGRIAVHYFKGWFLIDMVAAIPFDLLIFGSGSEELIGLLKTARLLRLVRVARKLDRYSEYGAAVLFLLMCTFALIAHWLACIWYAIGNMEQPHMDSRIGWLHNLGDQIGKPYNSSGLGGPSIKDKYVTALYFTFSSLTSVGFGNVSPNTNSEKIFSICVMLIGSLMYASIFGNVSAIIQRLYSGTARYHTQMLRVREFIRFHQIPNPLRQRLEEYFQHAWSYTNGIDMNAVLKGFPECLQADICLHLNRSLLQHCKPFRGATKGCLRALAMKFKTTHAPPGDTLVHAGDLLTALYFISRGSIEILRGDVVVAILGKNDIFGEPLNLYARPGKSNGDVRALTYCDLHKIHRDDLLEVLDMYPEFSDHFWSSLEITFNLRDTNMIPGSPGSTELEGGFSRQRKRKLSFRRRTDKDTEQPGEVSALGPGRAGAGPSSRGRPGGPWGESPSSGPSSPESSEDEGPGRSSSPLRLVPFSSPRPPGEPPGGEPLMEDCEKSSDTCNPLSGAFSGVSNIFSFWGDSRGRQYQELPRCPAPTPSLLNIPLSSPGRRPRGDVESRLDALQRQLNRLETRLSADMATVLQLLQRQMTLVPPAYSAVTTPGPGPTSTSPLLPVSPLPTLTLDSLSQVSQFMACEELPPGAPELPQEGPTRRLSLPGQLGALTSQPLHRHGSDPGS

Structure (SMILES)	hERG current change (%, negative = inhibition) at 10uM [%]
COC(=O)c1sc(NC(=O)CSc2nc3nc(C)cc(C)n3n2)c(C(=O)OC)c1C	-25.2
CCOC(=O)C1CCCN(C2=NC(=O)/C(=C/c3ccc(OC)cc3)S2)C1 (stereo not drawn)	-20.1
CC(=O)c1ccc(NC(=O)C(C)Sc2ccccn2)cc1 (stereo not drawn)	16.2
COc1ccc2occ(C(=O)c3ccc(N=C(C)N(C)C)cc3)c2c1	-58.8
O=C(CN1C(=O)S/C(=C/C=C/c2ccccc2)C1=O)Nc1ccc(C(=O)O)cc1	10.7
Cc1ccc(-n2c(CCc3nc4ccccc4[nH]3)n[nH]c2=S)cc1	22.3
Cc1ccc(CNC(=O)CC(C)S(=O)(=O)c2cc3c(cc2C)NC(=O)CO3)cc1 (stereo not drawn)	-16.1
CCOCc1nnc(NC(=O)c2c(OC)cccc2OC)s1	14.7
CCN1CCN(c2ncnc3c2cnn3-c2ccc(C)cc2C)CC1	-4.25
Cc1cccc(N=Nc2cn[nH]c2-c2ccco2)c1	5.4
Fc1ccc(CCNC(=S)Nc2ccc(F)cc2)cc1	-13.2
C/C(=N/NC(=O)c1cccs1)c1cccc(NC(=O)C2CC2)c1	1.63
CC#CCN1c2ccccc2[C@]23C[C@@H](C(=O)OC)N=C2NC(C(=O)OC)=C(C(=O)OC)[C@H]13	-6.37
COc1ccc(N(CC(=O)Nc2ccc3c(c2)OCO3)S(=O)(=O)c2ccc(F)cc2)cc1	14.1
CC(=O)c1ccc(S(=O)(=O)Nc2cc3c(cc2C(C)=O)OCO3)cc1	21.2
O=c1cc(-c2cccc(Cl)c2)oc2cccc(O)c12	-12.8
CC(=O)Nc1cccc2c1C(=O)NC2=O	1.34
O=C(COC(=O)c1ccc(C(F)(F)F)cc1)NC(=O)NC1CCCC1	8.39
O=C(CCC(=O)c1ccc(Cl)cc1)NCc1ccccc1	49
S=C(NCc1ccccc1)NCc1cccc(Cl)c1	-11.4
CN(C)C(=O)CSc1nnc(CCNC(=O)OC(C)(C)C)o1	-21.4
O=C(NCc1ccco1)c1cc(-c2ccccc2)on1	1.26
CCC(=O)N1CCCc2cc(S(=O)(=O)N3CCN(c4ccccn4)CC3)ccc21	-27.7
Cc1ccc(C(=O)CCC(=O)Nc2cccnc2)cc1C	12.4
Cc1cccc(C2c3[nH]c4ccccc4c3CCN2C(=O)c2cc(CC(C)C)[nH]c(=O)n2)n1 (stereo not drawn)	-23.1
O=C(c1ccc(Cl)c(S(=O)(=O)NCc2ccco2)c1)N1CCN(c2ccc(F)cc2)CC1	-70.3
Nc1c(Cl)c(Cl)nc(C(=O)OCC(=O)N2CCCC2=O)c1Cl	-22.5

Structure (SMILES)	hERG current change (%, negative = inhibition) at 10uM [%]
COc1ccc(C2CC(=O)c3c(ccc4ccccc34)N2)cc1OC (stereo not drawn)	-2.34
Brc1cccc(OCCN2CCOCC2)c1.O=C(O)C(=O)O	19
Cc1ccc(S(=O)(=O)N(Cc2cccc(Cl)c2)C(=O)N2CCN(C)CC2)cc1	9.85
O=C(O)c1cccc(S(=O)(=O)N2CCCC(c3nc4c(nnn4Cc4ccccc4Cl)c(=O)[nH]3)C2)c1 (stereo not drawn)	15.8
CCc1nnc(NC(=O)C(NC(=O)c2ccccc2Cl)C(C)C)s1 (stereo not drawn)	0.192
COc1ccc(CNC(=O)C(C#N)c2nc3ccccc3nc2N2CCCC2)cc1 (stereo not drawn)	10.1
COC(=O)CN1C(=O)[C@H]2[C@@H](C3CC3)N3C(=O)CN(Cc4ccccn4)C(=O)[C@@]3(Cc3ccccc3)[C@H]2C1=O	-1.65
Cc1ccc(C)c(N2CCN(C(=O)C34CC5CC(C3)CC(n3nnc(C)n3)(C5)C4)CC2)c1	-16.8
CCOc1ccc(S(=O)(=O)N2CCNC(=O)C2)cc1	8.04
CCOc1ccc2oc(C(=O)Nc3ccc4c(c3)OCO4)c(C)c2c1	13.9
Cc1[nH]c2ccc(C(=O)NCCCN3CCN(C)CC3)cc2c1C	17.7
CCCCOc1ccc(C(=O)NCC(=O)NCC(c2ccc(F)cc2)N2CCOCC2)cc1 (stereo not drawn)	-16.5
CCOC(=O)C1(CC)NC(c2ccc(N(C)C)cc2)C2C(=O)N(C)C(=O)C21 (stereo not drawn)	3.93
CCC(C)(C)NC(=O)CN(Cc1ccc(OC)cc1)C(=O)CCC(=O)Nc1nccs1	-4.32
CN(C)/C=C/C(=O)c1ccc(-c2ccc(Cl)cc2Cl)o1	-9.68
N#CCCN1CCN(C(=O)c2c(N)no[n+]2[O-])CC1	7.19
CCc1ccc(N2CCN(C(=O)N3CCOCC3)CC2)cc1	29.1
Cc1ccc(-n2c3c(c(=O)[nH]c2=O)C(NS(=O)(=O)c2ccc(C)cc2)(C(F)(F)F)C(=O)N3)cc1 (stereo not drawn)	-5
Cc1cc(O)cc2c1C(=O)/C(=C/c1ccco1)O2	20.1
Cc1oc2c(C)c3oc(=O)c(CCC(=O)NCCCCCC(=O)O)c(C)c3cc2c1C	34.5
Cc1ccc2nc(N(CCCN(C)C)C(=O)c3ccc4ncsc4c3)sc2c1	-61.4
COc1ccc(N2CCN(C(=O)CSc3nnc4c(C)cc5ccc(C)c(C)c5n34)CC2)cc1	-22.6
O=S(=O)(NCCc1csc(-c2ccccc2)n1)c1ccc2c(c1)OCCO2	-6.59
CCC(=O)NC(c1ccccc1OC)c1ccc2cccnc2c1O (stereo not drawn)	-23
COc1ccc(C(=O)N/C(=C\c2ccccc2)C(=O)Nc2ccc(C(=O)NCC(=O)O)cc2)cc1	3.48
Cc1c(Br)c([N+](=O)[O-])nn1CC(=O)NCC1CCCO1 (stereo not drawn)	43.6
COc1cccc(C2CC(c3cccs3)=NN2C(=O)c2ccco2)c1O (stereo not drawn)	-10.7
